From PMC11249618
No constants are given. Whether binding was seen depends on the method and setting. For part of these data: In cells and extracts the contact can be indirect. Some entries that bind do so weakly or less than the wild type.

Sequences of proteins named here, by UniProt entry; tags and fusion partners are left off. A change or cut given only in a name is not applied to a line headed by its entry.
UniProt Q8IXI1: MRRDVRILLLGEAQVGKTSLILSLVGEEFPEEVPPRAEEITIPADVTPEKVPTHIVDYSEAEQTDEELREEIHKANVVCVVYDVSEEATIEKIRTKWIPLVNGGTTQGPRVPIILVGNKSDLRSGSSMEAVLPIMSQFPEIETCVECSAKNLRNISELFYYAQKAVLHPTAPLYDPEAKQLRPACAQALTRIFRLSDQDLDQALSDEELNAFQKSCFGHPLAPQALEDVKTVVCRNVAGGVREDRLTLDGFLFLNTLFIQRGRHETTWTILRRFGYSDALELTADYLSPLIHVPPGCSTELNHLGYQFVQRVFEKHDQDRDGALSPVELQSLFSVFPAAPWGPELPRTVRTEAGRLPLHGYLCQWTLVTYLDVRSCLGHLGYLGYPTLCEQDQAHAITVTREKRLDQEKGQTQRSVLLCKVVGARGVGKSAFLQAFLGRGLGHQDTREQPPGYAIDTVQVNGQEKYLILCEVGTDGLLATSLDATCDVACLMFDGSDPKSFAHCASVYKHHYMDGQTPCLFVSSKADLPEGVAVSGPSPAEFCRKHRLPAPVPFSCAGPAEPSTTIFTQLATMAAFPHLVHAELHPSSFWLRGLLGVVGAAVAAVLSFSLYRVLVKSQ
UniProt Q8IXI2: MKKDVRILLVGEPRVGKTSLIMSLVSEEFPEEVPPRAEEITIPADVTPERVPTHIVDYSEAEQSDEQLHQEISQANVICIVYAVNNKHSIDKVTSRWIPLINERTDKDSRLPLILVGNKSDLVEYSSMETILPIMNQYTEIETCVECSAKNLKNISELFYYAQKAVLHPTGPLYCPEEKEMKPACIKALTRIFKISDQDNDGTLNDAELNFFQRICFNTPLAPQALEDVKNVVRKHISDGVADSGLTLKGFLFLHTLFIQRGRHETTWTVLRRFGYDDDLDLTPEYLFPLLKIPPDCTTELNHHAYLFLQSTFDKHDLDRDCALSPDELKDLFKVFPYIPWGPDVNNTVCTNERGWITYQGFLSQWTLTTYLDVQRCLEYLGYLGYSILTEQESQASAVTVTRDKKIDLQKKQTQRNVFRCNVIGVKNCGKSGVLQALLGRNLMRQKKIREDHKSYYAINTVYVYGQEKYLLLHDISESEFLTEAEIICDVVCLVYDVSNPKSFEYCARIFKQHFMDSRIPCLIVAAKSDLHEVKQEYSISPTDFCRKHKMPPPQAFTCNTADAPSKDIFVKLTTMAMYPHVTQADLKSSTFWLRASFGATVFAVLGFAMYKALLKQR
UniProt O00429: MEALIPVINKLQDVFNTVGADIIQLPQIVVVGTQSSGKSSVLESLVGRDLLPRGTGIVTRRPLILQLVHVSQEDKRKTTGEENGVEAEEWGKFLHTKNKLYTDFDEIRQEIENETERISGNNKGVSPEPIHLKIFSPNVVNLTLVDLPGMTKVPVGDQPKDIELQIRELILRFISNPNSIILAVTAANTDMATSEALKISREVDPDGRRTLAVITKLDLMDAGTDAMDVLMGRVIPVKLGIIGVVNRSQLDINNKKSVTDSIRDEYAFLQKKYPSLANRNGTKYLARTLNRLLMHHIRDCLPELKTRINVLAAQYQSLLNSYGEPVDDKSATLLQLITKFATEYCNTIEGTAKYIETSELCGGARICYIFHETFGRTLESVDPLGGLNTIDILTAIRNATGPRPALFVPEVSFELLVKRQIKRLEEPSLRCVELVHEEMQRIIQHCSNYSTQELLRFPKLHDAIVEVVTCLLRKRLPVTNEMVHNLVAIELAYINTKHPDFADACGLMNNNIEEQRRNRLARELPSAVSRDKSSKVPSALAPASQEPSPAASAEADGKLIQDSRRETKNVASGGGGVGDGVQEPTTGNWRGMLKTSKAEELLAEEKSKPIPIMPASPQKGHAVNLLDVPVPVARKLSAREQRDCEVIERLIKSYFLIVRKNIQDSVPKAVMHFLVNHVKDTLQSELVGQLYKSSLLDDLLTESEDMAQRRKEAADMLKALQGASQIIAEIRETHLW

Experiments:
[1] = biological target: Mitochondrial Rho GTPase 2 (endogenous, SH-SY5Y cells) (human (endogenous in SH-SY5Y)) (UniProt Q8IXI1); assay: co-IP; lysates of SH-SY5Y cells with stable expression of PS2 WT or PS2 D439A; IP with anti-Miro2 or anti-PS2 antibody or normal IgG on Protein A/G magnetic beads; Western blot (Fig. 5E, 7A-C); Miro2 with Mfn1 and Mfn2 decreased, with Drp1 unchanged, in PS2 D439A cells
GST-PS2(271–361) (human) = GST-PS2(271–361) (human) (UniProt P49810); assay: pull-down; GST pull-down of recombinant GST-PS2 fragments with recombinant His-Miro2 fragments; bound material eluted with SDS sample buffer, SDS-PAGE and Western blot (Fig. 5C, D); both purified
GST-PS2(1–87) (human) = GST-PS2(1–87) (human) (UniProt P49810); assay: as above
[2] = biological target: Mitochondrial Rho GTPase 1 (endogenous, SH-SY5Y cells) (human (endogenous in SH-SY5Y)) (UniProt Q8IXI2); assay: co-IP; detergent lysates of SH-SY5Y cells; IP with rabbit anti-Miro1, anti-Miro2 or anti-PS2 antibody or control IgG on Protein A/G magnetic beads, washed with PBST; Western blot with anti-PS2 and anti-Miro2 (Fig. 5A, B)
[3] = biological target: Mitochondrial Rho GTPase 2 (endogenous, SH-SY5Y cells) (human (endogenous in SH-SY5Y)) (UniProt Q8IXI1); assay: as above
[4] = biological target: presenilin 2 wild type, stably expressed in SH-SY5Y cells (pLV-PS2 WT) (human) (UniProt P49810); assay: co-IP; lysates of SH-SY5Y cells with stable expression of PS2 WT or PS2 D439A; IP with anti-Miro2 or anti-PS2 antibody or normal IgG on Protein A/G magnetic beads; Western blot (Fig. 5E, 7A-C); Miro2 with Mfn1 and Mfn2 decreased, with Drp1 unchanged, in PS2 D439A cells

| Substance | binding [1] | binding (GST-PS2(1–87) (human)) | further results |
| --- | --- | --- | --- |
| presenilin 2 (endogenous, SH-SY5Y cells) (from UniProt P49810-1 1-448) | – | – | binding [2]: no binding; binding [3]: binds |
| His-Miro2(220–592) (from UniProt Q8IXI1 220-592) (domain or fragment) | – | no binding | – |
| presenilin 2 D439A mutant, stably expressed in SH-SY5Y cells (pLV-PS2 D439A) (from UniProt P49810-1 1-448) | binds | – | – |

More lines, main results first:

| binding [1] | binding (GST-PS2(1–87) (human)) | Substance | further results |
| --- | --- | --- | --- |
| binds | – | presenilin 2 wild type, stably expressed in SH-SY5Y cells (pLV-PS2 WT) (from UniProt P49810-1 1-448) | – |
| – | no binding | His-Miro2(1–219) (from UniProt Q8IXI1 1-219) (domain or fragment) | binding (GST-PS2(271–361) (human)): no binding |
| binds | – | Drp1 (from UniProt O00429 1-736) | binding [4]: no binding |
